Assay results: PubChem BioAssay AID662 (National Center for Advancing Translational Sciences (NCATS), 2007)
Screen size: about 71,000 compounds; about 1,800 (2.5%) were called active. The inconclusive results got no clear call from the source; some entries with a clear call stand among them for comparison. The call rests on the fitted dose curve; in most records, active means well fitted activation curve with a large enough effect in the signal ratio, with a control signal flat (not every such curve was filed as active); inconclusive means small, poorly fitted or top-dose-only effect, or effect the other way, or a change in a side signal; inactive means flat fitted curve, though single readings scatter; the % refers to the signal ratio. Where the call is inconclusive, the potency comes from a doubtful curve fit.

Experiment: Cell signaling CRE-BLA (Fsk stim); on activity change, negative = inhibition: % of control where 0% means no effect
Details: CHO CRE-bla reporter (cAMP response element driving beta-lactamase), forskolin EC10, beta-lactamase ratio; activity change, negative = inhibition: at 38.2 µM (top of the series) unless noted
In short: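 Using CellSensor CRE-bla CHO cells in Opti-MEM with 0.5% dialyzed FBS, compounds were titrated with EC10 NKH 477 for 3 h at 37 °C. CCF4 ratio (460/530 nm) gave %Activity; AC50 derived.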
Potency means the concentration at half of the fitted maximal effect; tags describe the fitted curve by direction and shape.

SMILES	activity change, negative = inhibition	Potency
O=C1CN(/N=C\c2ccc([N+](=O)[O-])o2)C(=O)N1	inconclusive: -2.78% [at 17.1 µM]	
COC(=O)C1CCN(C(=O)CCCOc2ccccc2)CC1	inconclusive: -20%	
C=C(C)COc1ccc(-c2[nH]ncc2-c2ccccc2OC)c(O)c1	inconclusive: 1.32%	
CCC(=O)N1CCc2cc(S(=O)(=O)NCCC(=O)N3CCc4ccccc4C3)ccc21	inconclusive: 5.43%	
COc1cc(NC(=O)C2COc3ccccc3O2)c(OC)cc1Cl (stereo unspecified)		inactive
COc1ccc(C2C3=C(CC(C)(C)CC3=O)Nc3c2c(=O)[nH]c(=O)n3Cc2ccccc2)cc1OC (stereo unspecified)		inactive
Cc1csc(=O)n1CCC(=O)O		inconclusive: 12.6 µM [rising, single point]
CCOc1ccc(CCNC(=O)C2CCN(c3nn4c(=O)cc(C)nc4s3)CC2)cc1OCC	inconclusive: 16.2%	
COC(=O)c1ccc(CSc2ccc3nnc(-c4cccnc4)n3n2)o1		inconclusive: 10 µM [rising, partial curve]
O=C(O)c1cccc2c1C(=O)N(Cc1ccncc1)C2	inconclusive: 7.77%	
CCOc1ccccc1N1CCN(C(=O)c2cc3c(s2)CCC3)CC1		inconclusive: 2.51 µM [falling, full curve, poor fit]
CN(C)CCNC(=O)c1ccc(COCC(F)(F)F)cc1		inactive
CCN(C(=O)c1cc2cc3ccc(C)cc3nc2o1)c1ccc(OC)cc1		active: 12.6 µM
CC1=CC(=O)C2=C(C)CC[C@@H]3[C@H](OC(=O)[C@H]3C)[C@H]12	inconclusive: 14.2%	
COC(=O)C(CC(=O)c1ccc(Br)cc1)n1ccnc1 (stereo unspecified)	inconclusive: -21.5%	
CN(C)c1ccc(C(c2ccc(N(C)C)cc2)c2ccc([N+](=O)[O-])cc2)cc1	inactive: -1.09% [at 7.6 µM]	
Fc1ccc(-c2nc3nc4ccccc4nc3n2Cc2ccco2)cc1		inconclusive: 12.6 µM [rising, partial curve]
Cc1noc(C)c1COc1cccc(C(=O)N2CCN(C/C=C/c3ccccc3)CC2)c1	inconclusive: 14.4%	
CN(C)c1ncc2nc(-c3ccccc3)c(=O)n(C)c2n1		inconclusive: 2.51 µM [rising, full curve]
COc1ccc(C)cc1N(CC(N)=O)S(=O)(=O)c1ccc(C)cc1	inconclusive: -9.76% [at 7.6 µM]	
CCCOC(=O)Nc1ccc(S(=O)(=O)Nn2cnnc2)cc1	inconclusive: -8.3% [at 7.6 µM]	

SMILES	activity change, negative = inhibition	Potency
CCOC(=O)CCN(Cc1cccs1)S(=O)(=O)c1ccc(Cl)cc1		inactive
COC(=O)c1sc(NC(=O)c2cc3c(s2)CCCC3)nc1C	inconclusive: -8.85%	
Cc1ccc(C(C)C)c(OCc2ccc(-c3nnco3)cc2)c1		inconclusive: 25.1 µM [rising, single point]
COC(=O)c1cn(-c2ccccc2)nc1C(=O)OC		inconclusive: 10 µM [rising, single point]
O=C1SC(c2ccccc2)=N/C1=C/c1ccco1		inactive
CN1C(=O)C(O)(C2COC(C)(C)CC2=O)c2ccccc21 (stereo unspecified)	inconclusive: -7.45% [at 7.6 µM]	
CN1CCN(c2ncc3nc(-c4cccc(C#N)c4)c(=O)n(CCC#N)c3n2)CC1		active: 10 µM
COc1ccc(-c2nc(CSCC(=O)N3CCN(C(=O)c4ccco4)CC3)c(C)o2)cc1OC	inconclusive: 28.4%	
CN(Cc1ccccc1)C(=O)CSc1nc2ccccc2c(=O)n1Cc1ccco1		inconclusive: 12.6 µM [rising, single point]
C=C1CC[C@H](O)C/C1=C/C=C1\CCC[C@]2(C)[C@@H]([C@H](C)CCCC(C)C)CC[C@@H]12		inconclusive: 31.6 µM [falling, single point]
O=C(O)C[C@@H](C(=O)O)c1ccccc1[N+](=O)[O-]	inactive: -9.98% [at 7.6 µM]	
COC(=O)[C@@]1(Cc2ccccc2)[C@H]2c3cc(C(=O)N4CCCC4)n(C)c3C[C@H]2CN1C(=O)c1ccccc1		inactive
Cc1cc2c3c(c1C)C1(C(=O)N3C(C)(C)CC2C)C(C#N)=C(N)Oc2n[nH]c(C)c21 (stereo unspecified)	inconclusive: -12.5%	
CCOC(=O)c1ccc2[nH]c3c(c2c1)CN(C)CC3		inactive
COc1ccc(-c2ccc(N)[n+](CCCC(=O)O)n2)cc1		inactive
CCOC(=O)C1CCN(C(=O)CN2C(=O)C(CC)Oc3ccccc32)CC1 (stereo unspecified)	inconclusive: 17.2%	
Cc1cc(N2C(=O)C3C4c5ccccc5C(c5ccccc54)C3C2=O)no1 (stereo unspecified)		inconclusive: 2.51 µM [falling, single point]
CCCCCC(=O)OC(CN1CCCCC1)CN1CCCC1=O (stereo unspecified)		inactive
O=C(CSc1nc(-c2ccco2)cc(C(F)(F)F)n1)Nc1cccnc1	inconclusive: 29.8%	
CC(=O)Oc1ccc2c(C)c(CC(C)O)c(=O)oc2c1 (stereo unspecified)		inconclusive: 10 µM [rising, partial curve]
COc1ccccc1CNc1ncncc1-c1ccc(N(C)C)cc1	inconclusive: 19.1%	

SMILES	activity change, negative = inhibition	Potency
CC(C)CC(c1nnnn1C(C)C)N1CCN(c2cccc(Cl)c2)CC1 (stereo unspecified)		inactive
COC(=O)c1ccc(CSc2nccn2C)cc1		inconclusive: 20 µM [rising, single point]
c1ccc(-c2nnc(SCc3cn4ccsc4n3)o2)cc1		active: 10 µM
CCSc1nnc(-c2cccc(S(=O)(=O)N(CC)CC)c2)n1Cc1ccccc1		inactive
Cc1ccc(SCCNC(=O)CN2C(=O)c3ccccc3S2(=O)=O)cc1		inactive
O=C(c1cccc(C(=O)N2CCN(Cc3ccccc3)CC2)c1)N1CCN(Cc2ccccc2)CC1		inactive
O=C(CSc1nnc(-c2ccc(S(=O)(=O)N3CCOCC3)cc2)o1)c1ccccc1F	inconclusive: -3.74%	
CCCCc1nc2n[nH]c(N)c2c2c1CCC2		inconclusive: 12.6 µM [rising, partial curve]
O=C(CCC1N=C2c3ccccc3N=C(SCc3cccc(Cl)c3)N2C1=O)NCc1ccco1 (stereo unspecified)	inconclusive: 60.7%	
O=C(Oc1ccccc1)N1CCC[C@@]2(CCN(c3ncccn3)C2)C1		inactive
O=C(c1cnccn1)N1CCC2(CC1)CN(c1ccccn1)C2		inactive
COc1ccc(C(CNC(=O)c2ccc3c(c2)C(=O)N(CCC(C)C)C3=O)N2CCOCC2)cc1 (stereo unspecified)	inconclusive: -2.7%	
COc1cc(C(=O)Nc2nc3ccc(S(=O)(=O)N4CCOCC4)cc3s2)cc(OC)c1OC	inconclusive: 27.8%	
CN1CCN(CC(=O)N2CCn3c4c(c5cc(C6CCCCC6)ccc53)CCCC42)CC1 (stereo unspecified)	inconclusive: 21.7%	
Cc1[nH]c(=O)[nH]c(=O)c1S(=O)(=O)N(C)Cc1ccccc1	inconclusive: -8.85%	
CCNC(=O)CC1SC(=Nc2cccc(Cl)c2C)N(C)C1=O (stereo unspecified)		inconclusive: 5.01 µM [falling, single point]
CN(Cc1cccs1)c1ncnc2sccc12		inactive
O=c1c(Cc2ccccc2)c(O)nc2n1CCS2	inconclusive: -5.47%	
CN1CCN(S(=O)(=O)c2cccc(S(=O)(=O)c3ccc(Cl)cc3)c2)CC1		inactive
Cc1nc(Sc2nnnn2C)c2c3c(sc2n1)CCC3		inactive
COc1ccccc1Nc1nc(N)nc(CSc2ncccn2)n1		inconclusive: 10 µM [rising, partial curve]

SMILES	activity change, negative = inhibition	Potency
COc1cccc(NC(=O)N2CCN(Cc3nc4ccccc4c(=O)[nH]3)CC2)c1		inactive
Cc1nc2ncnn2c(C)c1CCC(=O)N1CCc2ccccc21		inconclusive: 3.98 µM [rising, single point]
CCn1c(SCc2ccc(OC)cc2)nnc1-c1ccncc1		inconclusive: 25.1 µM [falling, single point]
COc1ccc(/C=N/n2cnnc2SCc2ccccc2)cc1		inconclusive: 12.6 µM [rising, single point]
COc1ccc(CNc2ccnc(-c3c(C)noc3C)n2)c(OC)c1		inconclusive: 12.6 µM [rising, partial curve]
O=C1NCCCC2c3cc(O)c4ccccc4c3OC12N1CCCCC1 (stereo unspecified)		inconclusive: 25.1 µM [rising, single point]
O=C(CSc1ncccn1)NC(=O)NCc1ccccc1	inconclusive: 13.7%	
Cc1cc(C)n(S(=O)(=O)c2cccc(Cl)c2Cl)n1		inactive
O=C(Nc1nc(-c2ccc3c(c2)OCCO3)cs1)c1ccc(S(=O)(=O)N2CCCCC2)cc1	inconclusive: -3.2%	
COc1ccc(CCNC(=O)c2cc(-c3ccccc3)on2)cc1OC		inconclusive: 0.0316 µM [rising, full curve, poor fit]
COC(=O)c1ccc(C#CC(NP(=O)(c2ccccc2)c2ccccc2)c2ccccc2)cc1 (stereo unspecified)		inactive
COc1cccc(OC)c1OCCNC[C@@H]1COc2ccccc2O1		inconclusive: 25.1 µM [falling, partial curve, poor fit]
COc1ccc(Oc2ncc3nc(-c4ccccc4)c(=O)n(C4CC4)c3n2)cc1		inconclusive: 12.6 µM [rising, single point]
O=C(CNCC1CCCO1)Nc1ccc(N2CCCCCC2)cc1 (stereo unspecified)		inactive
Cc1cc(C)c(S(=O)(=O)N2CCN(C)CC2)c(C)c1		inactive
CC1=C(C(N)=O)C(c2cccc(OCc3ccccc3)c2)n2nnnc2N1 (stereo unspecified)	inconclusive: 0.0905%	
O=S(=O)(c1ccc2c(c1)C(=NO)c1cc(S(=O)(=O)N3CCCCC3)ccc1-2)N1CCCCC1	inconclusive: 25.8% [cytotoxic]	
COCCn1c(=O)c(-c2ccc(OC)cc2)nc2cnc(Oc3ccc(OC)cc3)nc21		inconclusive: 3.16 µM [rising, single point]
